Reference: article PMC4336329 (PLoS ONE, 2015)
Hit rate of the full screen: of about 310,000 compounds, about 14,000 (4.5%) showed an effect of 50% or more. Effects have a minus sign here. Some of the results follow.

Target: human ether-à-go-go-related gene (hERG) potassium channel (human, UniProt Q12809)
Assay: primary screen, population patch clamp on CHO cells stably expressing hERG
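Note: peak tail current of the secondary pulse compared with the same well before compound.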

human ether-à-go-go-related gene (hERG) potassium channel, sequence (Q12809 whole entry, looked up): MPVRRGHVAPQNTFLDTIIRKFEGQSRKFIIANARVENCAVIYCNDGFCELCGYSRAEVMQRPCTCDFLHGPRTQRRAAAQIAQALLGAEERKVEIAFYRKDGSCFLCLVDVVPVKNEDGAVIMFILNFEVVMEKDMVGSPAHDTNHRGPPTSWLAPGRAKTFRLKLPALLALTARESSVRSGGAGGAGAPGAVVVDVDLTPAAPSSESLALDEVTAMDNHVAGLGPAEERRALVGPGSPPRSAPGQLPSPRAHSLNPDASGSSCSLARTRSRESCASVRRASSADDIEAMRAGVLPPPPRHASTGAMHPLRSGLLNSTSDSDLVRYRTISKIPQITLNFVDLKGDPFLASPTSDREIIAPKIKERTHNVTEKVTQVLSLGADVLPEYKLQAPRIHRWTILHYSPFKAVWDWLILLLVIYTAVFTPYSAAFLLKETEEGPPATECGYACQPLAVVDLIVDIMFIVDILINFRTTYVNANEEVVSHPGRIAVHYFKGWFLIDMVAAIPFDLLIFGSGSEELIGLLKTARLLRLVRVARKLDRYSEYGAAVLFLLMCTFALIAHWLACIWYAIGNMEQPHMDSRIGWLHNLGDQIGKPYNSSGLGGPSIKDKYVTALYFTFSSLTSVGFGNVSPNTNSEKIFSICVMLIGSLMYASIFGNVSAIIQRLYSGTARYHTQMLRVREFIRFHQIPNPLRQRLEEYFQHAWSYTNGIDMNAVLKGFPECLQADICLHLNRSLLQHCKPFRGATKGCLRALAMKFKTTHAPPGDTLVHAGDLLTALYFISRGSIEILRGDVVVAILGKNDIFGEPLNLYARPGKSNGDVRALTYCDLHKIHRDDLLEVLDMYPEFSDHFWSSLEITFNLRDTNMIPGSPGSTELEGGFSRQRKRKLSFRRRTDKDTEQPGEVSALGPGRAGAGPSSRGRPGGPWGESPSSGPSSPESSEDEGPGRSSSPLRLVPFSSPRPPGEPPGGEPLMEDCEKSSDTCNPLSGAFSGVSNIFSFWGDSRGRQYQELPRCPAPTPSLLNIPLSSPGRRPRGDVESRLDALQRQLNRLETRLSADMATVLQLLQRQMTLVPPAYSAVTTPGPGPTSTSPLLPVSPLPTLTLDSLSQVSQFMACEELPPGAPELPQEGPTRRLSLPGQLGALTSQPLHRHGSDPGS

Row | SMILES | hERG current change (%, negative = inhibition) at 10uM [%]
1 | O=C(Nc1ccc2c(c1)OCO2)c1ccc(CO)cc1 | 4.24
2 | O=C(CCC1CCCCC1)NCc1ccc(F)cc1 | -5.07
3 | COc1ccc(Cn2c(O)c(C=Nc3ccc(O)cc3)c3ccccc3c2=O)cc1 | 1.27
4 | O=C(c1cc(F)ccc1F)C1CCCN(CCCc2ccccc2)C1 (centres unmarked) | -73.2
5 | CC(=O)N1CCN(C(C)=O)C1c1ccccc1 | 7.49
6 | CCC(C)(O)c1[nH]c2ccc(C(F)(F)F)cc2c1C (centres unmarked) | 24.8
7 | CC(O)c1cccc(N=Cc2ccc3ccccc3c2O)c1 (centres unmarked) | 12.3
8 | CCOc1ccc(CN2CCN(Cc3cnc(-c4ccccc4)s3)CC2CCO)cc1 (centres unmarked) | -90.7
9 | Nc1nc2ccccc2n1C(=O)c1ccc(F)cc1 | 10.1
10 | C=CCN(c1ccccc1)S(=O)(=O)c1cccc(C(=O)NCC2CCCO2)c1 (centres unmarked) | -41.3
11 | C/C(=N\Nc1cc(C)nc(-c2ccccc2O)n1)c1ccccc1 | 24.5
12 | COCCOC(=O)c1c(C)n(C)c2ccc(OC(=O)N3CCOCC3)cc12 | 2.98
13 | CN(C)C(=N)N=C(N)N.Cl | 20.3
14 | Nn1c(SCC(=O)NCC2CCCO2)nnc1-c1ccc(OC(F)F)cc1 (centres unmarked) | -68.5
15 | c1ccc(Nc2cc(Nc3ccccc3)[nH]n2)cc1 | -0.31
16 | CCC(C)C(=O)N1c2ccccc2C(=C2SC(C(=O)OC)=C(C(=O)OC)S2)C(=S)C1(C)C (centres unmarked) | -1.24
17 | Cc1cccc(NC(=O)NC2CC(=O)N(c3ccc4c(c3)OCCO4)C2)n1 (centres unmarked) | -18.8
18 | COc1ccc(/C=C/C(=O)OCC(=O)Nc2cc(C(F)(F)F)ccc2Cl)cc1 | 10.5
19 | NC(=O)[C@@H]1CC2(CC(c3cccc(NC(=O)CC(c4ccccc4)c4ccccc4)c3)=NO2)CN1C(=O)[C@@H]1CCC(=O)N1 (some centres unmarked) | -4.11
20 | Cc1cc(C(=O)CN2C(=O)C(=O)N(Cc3ccco3)C2=O)c(C)n1CCc1ccccc1 | -29
21 | COc1ccc(C(CNC(=O)C(CCSC)NC(=O)c2ccccc2OC)N2CCCCC2)cc1 (centres unmarked) | -37.7
22 | COc1ccc(NC(=O)NCCCN2CCCC2=O)cc1 | 4.11

Row | SMILES | hERG current change (%, negative = inhibition) at 10uM [%]
23 | CC1(C)CC(=O)C2=C(C1)OC(N)=C(C#N)C2c1ccc2c(c1)OCO2 (centres unmarked) | 0.854
24 | COc1cc(OC)cc(-c2nc(=S)n3ccsc3n2)c1 | 13.2
25 | Cc1ccc(-c2cn(C[C@H]3CC[C@@H]([C@@H]4CC[C@H](Cn5cc(-c6ccc(C)cc6)nn5)O4)O3)nn2)cc1 | -7.99
26 | CC(/C=N/NC(=O)CNc1n[nH]c(=O)[nH]c1=O)c1ccccc1 (centres unmarked) | 2.52
27 | O=C(NCC(NS(=O)(=O)OCC(Cl)(Cl)Cl)c1ccccc1)C(F)(F)F (centres unmarked) | -1.57
28 | Cc1cc(C)nc(SC2CC(=O)N(c3ccc(Br)cc3)C2=O)n1 (centres unmarked) | 1.34
29 | O=C(CCCN1CCC(NC(=O)c2ccccc2)CC1)c1ccc(Cl)cc1 | -77.8
30 | COCCN(Cc1ccccc1)C(=O)c1ccc2c(=O)n3c(nc2c1)CCC3 | -22.1
31 | COc1ccccc1NC(=O)NCC(=O)Nc1ccc(F)c(F)c1 | -5.59
32 | O=C1C2CC=CCC2C(=O)N1c1ccc(OCC(O)Cn2nnc3ccccc32)cc1 (centres unmarked) | -1.31
33 | CN(CCCNC(=O)c1cccc(N2CCCC2=O)c1)c1ccccc1 | -11.4
34 | Nc1nn2cc(-c3ccc(Br)cc3)nc2c2ccccc12 | 2.39
35 | Cc1ccc(/C=N/NC(=O)c2ccc(Br)o2)s1 | -12.8
36 | Cc1cccc(NS(=O)(=O)c2ccc(Cl)cc2)n1 | 21.6
37 | Cc1cc(Br)ccc1OCCN1CCCC1.O=C(O)C(=O)O | -36.8
38 | COc1ccc(CNC(=O)CCCCCn2c(SCC#N)nc3cc4c(cc3c2=O)OCO4)cc1 | 4.73
39 | CC1=Nc2ccccc2N=C(NC(=O)CSC(=S)N2CCN(C)CC2)C1c1ccccc1 (centres unmarked) | -24.2
40 | COc1ccc(NC(=O)CN(C)C(=O)c2ccc(NC3CC3)c([N+](=O)[O-])c2)cc1 | -72.8
41 | Cc1ccc(N2C(=O)N(CC(=O)Nc3ccc(C)cc3C)C(=O)C2C)cc1 (centres unmarked) | 10.3
42 | COc1cc(CNC2CCCCCC2)cc(OC)c1O.O=C(O)C(=O)O | 19.7
43 | Cc1cc(Cl)ccc1C(=O)C1CCCN(C(=O)c2cc(C(C)C)no2)C1 (centres unmarked) | -22.7
44 | COC(=O)c1c(C(=O)OC)c2ccccn2c1C(=O)c1ccc([N+](=O)[O-])cc1 | -15.5

Row | SMILES | hERG current change (%, negative = inhibition) at 10uM [%]
45 | CCOC(=S)N/C(=N\S(=O)(=O)c1ccc(C)cc1)c1ccccc1 | 7.62
46 | O=C(Nc1ccc(NC(=O)N2CCN(c3ccccc3O)CC2)cc1)N1CCN(c2ccccc2O)CC1 | 21.7
47 | Cc1cccc(Nc2ccccc2C(=O)OCC(=O)N(C)C2CCS(=O)(=O)C2)c1C (centres unmarked) | -10.3
48 | CC(C)OCCCNC(=O)c1cc(Sc2ccc(F)cc2)nc2ccccc12 | -5.77
49 | CCOC(=O)c1ccc(NC(=S)NNC(C)(C)C)cc1 | 13
50 | O=C(NN1C(=O)/C(=C/C=C/c2ccco2)SC1=S)c1ccncc1 | 15.3
51 | COc1ccc(S(=O)(=O)Nc2cccc(N(C)S(C)(=O)=O)c2)cc1C | -36
52 | CN(C)S(=O)(=O)c1ccc(NC(=O)CN2CCOCC2)cc1 | 9.72
53 | COc1ccccc1/C=C1\SC(=S)N(CCC(=O)NNC(=O)c2ccccc2OC)C1=O | 27.8
54 | CCOc1ccc(C2C(C#N)=C(N)N(N(C)C)C3=C2C(=O)CCC3)cc1 (centres unmarked) | -7.87
55 | C[C@]12CCC(=O)C=C1CC[C@@H]1[C@@H]2[C@@H](O)C[C@@]2(C)[C@H]1CC[C@]2(O)C(=O)COC(=O)CCC(=O)O | 2.9
56 | CCCCC(CC)Cn1c(O)c(/C=C2\C=NN=C2c2ccccc2)sc1=S (centres unmarked) | 13.9
57 | CC(=O)Nc1ccc(CC(=O)O)cc1 | 2.48
58 | CC(=O)c1c(C)[nH]c(C(=O)OCc2ccccc2)c1C | -3.71
59 | COC(=O)c1ccc(NC(=O)COc2ccc(S(=O)(=O)NC(C)C)cc2)cc1 | 1.28
60 | CN(C)CC(C)(C)CNC(C(=O)Nc1ccc(Cl)cc1C(F)(F)F)c1ccccc1 (centres unmarked) | -76.9
61 | COc1ccc(Cl)cc1N1C(=O)C2CCCN2C1c1ccc(F)c(F)c1 (centres unmarked) | -4.05
62 | COC1(OC)N=C(N)C2(C#N)C(c3ccc4c(c3)OCO4)C12C#N (centres unmarked) | 7.39
63 | O=C(/C=C/c1ccc(Cl)c([N+](=O)[O-])c1)NCc1cccnc1 | -11.3
64 | CCN1C(=O)/C(=C/c2ccc(OC)c(OC)c2)N=C1SCC(=O)NCc1ccco1 | -15.1
65 | Cc1ccc(N(Cc2ccccc2)C(=O)c2cc(S(=O)(=O)N3CCOCC3)ccc2F)cc1 | -10.2
66 | Cn1c(=O)c2c(nc(Cl)n2Cc2ccncc2)n(C)c1=O | 2.99

Row | SMILES | hERG current change (%, negative = inhibition) at 10uM [%]
67 | CCOC(=O)c1[nH]cnc1N=Nc1c(O)ccc2ccccc12 | 11.4
68 | COc1cc(CN2CCN(Cc3ccccc3C(F)(F)F)CC2)cc(OC)c1OC.O=C(O)C(=O)O | -8.28
69 | CCN(CC(=O)Nc1ccc(NC(C)=O)cc1)C(=O)CSCc1c(C)noc1C | 5.14
70 | CC(C)(C)SCCNC(=O)CN(c1ccc(F)c(Cl)c1)S(C)(=O)=O | 9.67
71 | O=C(CCl)Nc1ccccc1C(=O)Nc1ccc2c(c1)OCO2 | 15.7
72 | COc1ccc(OC)c(NC(=O)CCNS(=O)(=O)c2ccc3c(c2)c(=O)n(C)c(=O)n3C)c1 | 10.7
73 | CC1CCc2sc(C(=O)NNC(=S)NC3CC3)cc2C1 (centres unmarked) | 26
74 | CC(Sc1nn(-c2ccccc2)c(=S)s1)C(=O)NCC1CCCO1 (centres unmarked) | -13
75 | COC(=O)c1sccc1NC(=O)CC1C(=O)NCCN1C(=O)Nc1ccccc1 (centres unmarked) | -1.48
76 | CCOC(=O)COc1c(Br)cc(/C=C2\SC(=O)N(CC(=O)N3CCCC3)C2=O)cc1OC | -24
77 | CC1(C(=O)OCC(=O)Nc2ccc(C(N)=O)cc2)CC1(Cl)Cl (centres unmarked) | 1.95
78 | COc1ccc(C(CNC(=O)COc2cc(C)c(Cl)c(C)c2)N2CCCCC2)cc1 (centres unmarked) | -20.2
79 | CCOC(=O)Cc1nnc(NC(=O)CSc2nncn2C)s1 | -5.96
80 | COc1cc(CC(=O)NCC2CCCCC2)cc(OC)c1OC | 19.6
81 | Cc1ccc(C)c(C(=O)CSc2n[nH]c(C)n2)c1 | 3.61
82 | O=C1Nc2cc(C(=O)N3CCC(N4CCCCC4)CC3)ccc2S/C1=C\c1ccccc1 | -58.3
83 | Cn1c(=O)c2[nH]cnc2n(-c2ccccc2)c1=O | 3.59
84 | CCN(CC)CCSc1nc2ccccc2n1Cc1ccccc1.Cl | -74.1
85 | Cc1ccc(NS(=O)(=O)c2cc(NC(=O)c3cc4c(s3)CCCC4)ccc2C)c(C)c1 | -5.77
86 | Cc1sc(NC(=O)C2CCCCC2C(=O)O)c(C(N)=O)c1-c1ccccc1 (centres unmarked) | 3.55
